In the supplement of paper PMC11417369:
The list shows a part of the results.

tested on: PfHDP1 homeodomain (GST-tagged); test: gcPBM binding intensity (ln(normalized median fluorescence intensity)); higher = stronger DNA binding
How it was run: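 An Agilent 4 × 180k array carrying primer-extended double-stranded 36-bp intergenic genomic probes and negative controls received GST-tagged P. falciparum DNA-binding domains expressed in E. coli, about 25 μg on average, for 1 h. The binding buffer contained 1× PBS, 1% milk, 0.2 mg/ml BSA, 0.5% salmon testes DNA and 0.03% Triton X-100. Binding intensity is the top Masliner-normalised natural-log median intensity across replicate spots of either probe orientation, read after Alexa488 anti-GST antibody staining and a 488 nm scan.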

First: GGAAAAAAACTTATGAGTACACATAAATATAGCACA [XGTACX_site6686]
Second: ATATTGATACATCCAATACACACTACATATAATGAT [CACACA_site1874]
The “gcPBM binding intensity (ln)” value of the first is higher: 7.55 for the first, 6.82 for the second.

First: TATATTTTCTATAGGTGTACTCCACATGCGGTGTTA [XGTACX_site7471]
Second: AATATATATAAATATTGTACAAAAATATATATATAT [XGTACX_site2910]
The “gcPBM binding intensity (ln)” value of the first is lower: 6.17 for the first, 9.01 for the second.

Compared with “TCCCTCTTTTTATTCTCACACACGTTTATATATAAA [CACACA_site1644]”, “ATATATGATGTAAAAGCACACATATATATATATATA [CACACA_site9330]” is higher in “gcPBM binding intensity (ln)” value: 7.62 for the first, 9.34 for the second.

Compared with “TATTATTATCTTACCACACACAATGTACGAAAAGAT [CACACA_site352]”, “TGTAGGTATTATTATACACACATAAAAAAAAAAAAA [CACACA_site3598]” is higher in “gcPBM binding intensity (ln)” value: 6.51 for the first, 6.57 for the second.

First: TAAAATATTATAAAATGTACAAAACATATAAATATA [XGTACX_site5315]
Second: AAATTAAAAAGACATTCACACATTTTCATCTTAACA [CACACA_site5221]
The “gcPBM binding intensity (ln)” value of the first is lower: 6.14 for the first, 6.19 for the second.

First: TAACATATAATATTCACACACATATATATATTATAT [CACACA_site988]
Second: AAACATATATATATTATATATATATATATATATATG [GTGCAC_negctrl_site182]
The “gcPBM binding intensity (ln)” value of the first is lower: 6.81 for the first, 7.39 for the second.

Compared with “CGATATGTTCAATATTGTACTATTTATAATAATATG [XGTACX_site3051]”, “ATGGCCATAATATAGACACACATATATAAATATATA [CACACA_site2230]” is lower in “gcPBM binding intensity (ln)” value: 6.47 for the first, 6.39 for the second.

First: TATTGACAAAATAGCTGTACAAATTAAAAGAAATAA [XGTACX_site4415]
Second: TCTTACTAATATCGCACACACATATGTAGACGGGAT [CACACA_site87]
The “gcPBM binding intensity (ln)” value of the first is lower: 6.36 for the first, 7.39 for the second.

Compared with “TATTTATATGGACACACACACATATAAATAAATAAA [CACACA_site6346]”, “TTTAATTGATAATGAAGACAATTATATGCATCCAAA [TGCATGCA_negctrl_site138]” is lower in “gcPBM binding intensity (ln)” value: 7.11 for the first, 6.29 for the second.

First: TTATTGTCTTCTCATATACACACTTTTATGACTATC [CACACA_site3142]
Second: CTTAAAAAAAAAAAATGTACACATAAAAAAAATACA [XGTACX_site6700]
The “gcPBM binding intensity (ln)” value of the first is higher: 7.18 for the first, 6.63 for the second.

Going from “GGAAAAACCATTCGCACACACACATAATATATAATA [CACACA_site1424]” to “ATAATAATATATATTACACACGCATCGTTCATTTAT [CACACA_site8752]”, the “gcPBM binding intensity (ln)” value falls from 7.53 to 7.06.

First: ATTAATATATATGGATGTACTTATGTATGTATGCAT [XGTACX_site2263]
Second: CATGTATAATATAATACACACTATATAATATACACC [CACACA_site5267]
The “gcPBM binding intensity (ln)” value of the first is lower: 6.39 for the first, 6.95 for the second.

Compared with “ATTTTATTCTAAAAAGGTACACATATTATTTTATGA [XGTACX_site7233]”, “TAAATAAGGAAGGAAACACACATTAAAAAATAAATA [CACACA_site618]” is higher in “gcPBM binding intensity (ln)” value: 6.08 for the first, 6.42 for the second.

First: TTTTTAAATTATTTGAAAAAAAGAAAATTATAAACA [CACACA_negctrl_site1599]
Second: AACAGAAGCACATACACACACTCAAAAAAAAAAAAA [CACACA_site5652]
The “gcPBM binding intensity (ln)” value of the first is lower: 6.33 for the first, 6.74 for the second.

First: ATTTAGAAATATATTTGTACATATATATATATATAT [XGTACX_site7129]
Second: ATTCAAACAAATTAATGTACATATATATAAGATATT [XGTACX_site1531]
The “gcPBM binding intensity (ln)” value of the first is higher: 9.3 for the first, 6.71 for the second.

Compared with “TACCCTGATCGGCATGCATGTAAGTAACAAATATAT [TGCATGCA_site153]”, “TGTTGATAAAAAATAAAAAATAAAAAAATAAAATAT [TGCATGCA_negctrl_site559]” is lower in “gcPBM binding intensity (ln)” value: 6.66 for the first, 6.45 for the second.

Going from “CTACATATTAATATATGTACATATTAATATATCTAA [XGTACX_site7118]” to “ATAAAAAGAAAAAAGGGTACACTATACTATTTAAAA [XGTACX_site4467]”, the “gcPBM binding intensity (ln)” value rises from 6.07 to 6.17.

First: ATATATACATATAAATGTACATAATTATTATGCACA [XGTACX_site1261]
Second: TTAAAGCTTACATATACACACATACATAAATTCATA [CACACA_site8785]
The “gcPBM binding intensity (ln)” value of the first is higher: 9.09 for the first, 6.72 for the second.

Compared with “TATGATGATATAAAAACACACACATATAATATAATA [CACACA_site8321]”, “GTAAAATAAAATATATGTACATATGTATATGAGGTA [XGTACX_site3743]” is higher in “gcPBM binding intensity (ln)” value: 6.89 for the first, 7.15 for the second.

Going from “TTTTGATCATCCAAAATATCTTCATCTGAACTACTA [CACACA_negctrl_site939]” to “GACATATTCCCCCCCACACACACACCCACATACATA [CACACA_site2302]”, the “gcPBM binding intensity (ln)” value rises from 6.04 to 8.81.

Going from “TTAATGTTGTATGGTTGTACAATAAGCCCCTTTTAA [XGTACX_site2484]” to “TTATTTGAACAATATGCACACATTTTATTTATTTTA [CACACA_site3420]”, the “gcPBM binding intensity (ln)” value rises from 6.5 to 10.1.

Going from “TATAAAGCATATTAAAGTACTTATTTTCCTTTTTCT [XGTACX_site8892]” to “TTTTATTTTATTCTTAAATAAGTATTATAAAATATG [XGTACX_negctrl_site201]”, the “gcPBM binding intensity (ln)” value falls from 6.27 to 5.94.

Going from “TATATATATATGTGCACACATAATAAAAAAAAAAAT [CACACA_site3831]” to “AAAATATATATATATATATATATATGTATACTCCTA [XGTACX_negctrl_site312]”, the “gcPBM binding intensity (ln)” value falls from 9.99 to 7.28.

First: TTTTATGTTTCAAAATGTACATTAAAATATACCATA [XGTACX_site1713]
Second: TTATTTATAAATATTAATTTTTTTTTTTTTTTTTTT [XGTACX_negctrl_site105]
The “gcPBM binding intensity (ln)” value of the first is lower: 6.14 for the first, 6.62 for the second.

First: TTAATTAAAACGAATACACACATAAATATATAAAAG [CACACA_site1254]
Second: ATATATATATTTTTTAAACACACACCGAAATATTTG [CACACA_site8937]
The “gcPBM binding intensity (ln)” value of the first is lower: 6.86 for the first, 7.7 for the second.

First: TTTTATTATTGAATACTAGTATATATAATATGAAGA [CACACA_negctrl_site910]
Second: CATATGCATACTATACGTACATATGTATATAATATA [XGTACX_site7738]
The “gcPBM binding intensity (ln)” value of the first is higher: 6.62 for the first, 6.6 for the second.

Compared with “AACTTACTTGGACATACACACATATAGATTTATATA [CACACA_site7412]”, “GTACAAATGTTGTGTATATATACACACATACATATA [XGTACX_negctrl_site276]” is higher in “gcPBM binding intensity (ln)” value: 6.87 for the first, 7.51 for the second.

Going from “ATGTAGTTTTATCAGTGTACAAGTATTTTATCACAT [XGTACX_site8958]” to “TTTTTATATAACCTTCTTAATTCTTTTTTTTTTTTT [XGTACX_negctrl_site591]”, the “gcPBM binding intensity (ln)” value falls from 6.53 to 6.16.

Compared with “AAAACAAAATTATGAACATGCAAGGTAAAATTGTAA [TGCATGCA_site775]”, “AATATAATATAATGCACACATAAAAAAAAAATCAAA [CACACA_site122]” is higher in “gcPBM binding intensity (ln)” value: 6.92 for the first, 11 for the second.

Going from “TTTTCAAAGATATATACACACATGCATATTACGGTG [CACACA_site6505]” to “TTAATAAATATCAATACACACACACTAATGTGAATA [CACACA_site9254]”, the “gcPBM binding intensity (ln)” value falls from 6.6 to 6.3.

Going from “TTTTTGAGTGCACATACACACAGACATACATTTAAA [CACACA_site5813]” to CATTATGTACAAAAAGTGCAATATATATTAACACTG, the “gcPBM binding intensity (ln)” value falls from 10.4 to 8.49.

Compared with “TTATATATATATATATATATATATATATATATAAAT [GTGCAC_negctrl_site126]”, “AACAAAATAAGAAAACGTACAAATGTTTCAAATTCT [XGTACX_site1544]” is lower in “gcPBM binding intensity (ln)” value: 7.57 for the first, 6.32 for the second.

Going from “TAAGGAAAAAAAATATGTACTTATAGTTCCTTCTTT [XGTACX_site2202]” to “ATTTGTAATATTAAATGTACAGGTAAGAAATATCAG [XGTACX_site1562]”, the “gcPBM binding intensity (ln)” value rises from 5.89 to 7.25.

Compared with “ATTACAACATTTTATACACACGTGATTATTAATTTT [CACACA_site5581]”, “TTCAATATACATATGTGTACTAAAATAAATAGAAAA [XGTACX_site5708]” is lower in “gcPBM binding intensity (ln)” value: 6.82 for the first, 6.8 for the second.

Going from “GGATTCAAAAAAAAAAATAAAAGTAAATAATAAATA [TGCATGCA_negctrl_site348]” to “TAAATATATTTATACACACACACCAAAGCAATAGAT [CACACA_site7393]”, the “gcPBM binding intensity (ln)” value rises from 6.18 to 7.23.

First: TATATTTCAGGGGGGAGTACAAATTTTTTTATATAA [XGTACX_site1600]
Second: AAGAACAGAACGTACACACACATATTTATATTTATA [CACACA_site7594]
The “gcPBM binding intensity (ln)” value of the first is higher: 9.22 for the first, 6.65 for the second.

Going from “TTTATGAAGTAAAAATATAAATTCACAAAGTTAAAA [CACACA_negctrl_site1476]” to “TATGTATATTCTTTCAGTACACATAATGTTGTCATA [XGTACX_site8845]”, the “gcPBM binding intensity (ln)” value rises from 6 to 6.65.

Compared with “TTAATATATATATATATATATATATTTTTATTTTTT [CACACA_negctrl_site763]”, “TGTATTAACAAAAAGGTGCGGATATATATAAAAAAT [GTGCAC_site9473]” is higher in “gcPBM binding intensity (ln)” value: 6.81 for the first, 7.59 for the second.

Compared with “AAAATGTTATTGGAAAGTACAAAAAAAATTATATAA [XGTACX_site4074]”, “CATATATAGATATATACACACATATATAAATAAATA [CACACA_site6759]” is higher in “gcPBM binding intensity (ln)” value: 6.47 for the first, 6.62 for the second.

Going from “ATAAAACGTACAATGGTGCATATAAATAATATATAT [GTGCAC_site9960]” to “AAAAAATATTTTTACAGTACATATATATAAAATGTT [XGTACX_site3215]”, the “gcPBM binding intensity (ln)” value falls from 10.3 to 6.5.

Going from “TCATTTCACGGACACACACACACAATATATTTCCTT [CACACA_site6023]” to “TAACAAAGGAAAGATATACACACGTATGCATGATAA [CACACA_site2520]”, the “gcPBM binding intensity (ln)” value rises from 7.05 to 8.09.

Compared with “CATTAATATATATATACATGCACGTTTTAAAAAAAA [TGCATGCA_site875]”, “ATGGGAATATAATTATGTACATATAAAAATTATAAA [XGTACX_site5336]” is lower in “gcPBM binding intensity (ln)” value: 9.59 for the first, 6.38 for the second.

First: TAATTATGCAGACACACACACACACGCAACTAAAAA [CACACA_site7253]
Second: TAAAAAATATAAACTGCACACACAAAAAAAAAAGAG [CACACA_site8379]
The “gcPBM binding intensity (ln)” value of the first is lower: 7.07 for the first, 7.66 for the second.

Compared with “AATTTAAAATAATATTGTACTTAGATATAAATATGA [XGTACX_site4198]”, “TAATATCTAAAAAATATATTTTTTATTTTTTATTAA [CACACA_negctrl_site510]” is higher in “gcPBM binding intensity (ln)” value: 6.11 for the first, 6.15 for the second.
